Results: the supplement of paper PMC12217912
This is one part of the list. Sequences were assembled here from the parent chain. Inactive controls read about 0.05.

B1: TEV protease; numbered along this chain (parent)
chain: MGESLFKGPRDYNPISSSICHLTNESDGHTTSLYGIGFGPFIITNKHLFRRNNGTLVVQSLHGVFKVKDTTTLQQHLVDGRDMIIIRMPKDFPPFPQKLKFREPQREERICLVTTNFQTKSMSSMVSDTSCTFPSGDGIFWKHWIQTKDGQCGSPLVSTRDGFIVGIHSASNFTNTNNYFTSVPKNFMELLTNQEAQQWVSGWRLNADSVLWGGHKVFMVKPEEPFQPVKEATQL

Variants of: B1
Assay: raw area under fraction-flipped curve 0-4 h after induction (AUC4h, not background-subtracted), DNA-recorder readout of cleavage of the substrate (dimensionless); higher = more cleavage of the substrate by the protease variant
Conditions: temperature: 34 °C; time window: 0-4 h after rhamnose induction
Protocol: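 In vivo DNA recorder in E. coli TOP10(DE3) ΔrhaA at 34 °C. Each TEVp single-site mutant (parent TEVp 0) is paired with a single-site variant of the 7-mer TEVs (canonical ENLYFQ|S). The substrate sits between flexible linkers in a Bxb1-sfGFP-TEVs-SsrA fusion, so cleavage stabilises Bxb1 and speeds flipping of a recombination array, read by NGS. The value is the raw area under the fraction-flipped curve over 0-4 h after rhamnose induction (AUC4h), with ≥20 reads per time point. It is not background-subtracted; inactive controls average about 0.047.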
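Further: Bxb1 expression induced with 0.2% (w/v) L-rhamnose at OD600 near 0.5, cultures sampled hourly, flipped fraction per protease–substrate barcode pair counted by paired-end Illumina sequencing.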

| Variant | area with substrate ENLYFQA | area with substrate ENLYFQC | area with substrate ENLYFQG | area with substrate ENLYFQH | area with substrate ENLYFQI | area with substrate ENLYFQM | area with substrate ENLYFQN | area with substrate ENLYFQR | area with substrate ENLYFQS | area with substrate ENLYFQT | area with substrate ENLYFQV | area with substrate ENLYFQW | area with substrate ENLYFQY | area with substrate ENLYFQE | area with substrate ENLYFQL | area with substrate ENLYFQQ | area with substrate ENLYFQD | area with substrate ENLYFQF | area with substrate ENLYFQK | area with substrate ENLYFQP |
| --- | --- | --- | --- | --- | --- | --- | --- | --- | --- | --- | --- | --- | --- | --- | --- | --- | --- | --- | --- | --- |
| MGESLFKGPRDYNPISSSICHLTNESDGHTTSLYGIGFGPFIITNKHLFRRNNGTLVVQSLHGVFKVKDTTTLQQHLVDGRDMIIIRMPKDPPPFPQKLKFREPQREERICLVTTNFQTKSMSSMVSDTSCTFPSGDGIFWKHWIQTKDGQCGSPLVSTRDGFIVGIHSASNFTNTNNYFTSVPKNFMELLTNQEAQQWVSGWRLNADSVLWGGHKVFMVKPEEPFQPVKEATQL [F92P] | 0.0561 | 0.0603 | 0.0558 | 0.0494 | 0.0453 | 0.057 | 0.054 | 0.055 | 0.0605 | 0.0518 | 0.0399 | 0.0686 | 0.0454 |  |  |  |  |  |  |  |
| MGESLFKGPRDYNPISSSICHLTNESDGHTTSLYGIGFGPFIITNKHLFRRNNGTLVVQSLHGVFKVKDTTTLQQHLVDGRDMIIIRMPKLFPPFPQKLKFREPQREERICLVTTNFQTKSMSSMVSDTSCTFPSGDGIFWKHWIQTKDGQCGSPLVSTRDGFIVGIHSASNFTNTNNYFTSVPKNFMELLTNQEAQQWVSGWRLNADSVLWGGHKVFMVKPEEPFQPVKEATQL [D91L] | 0.14 |  |  |  |  |  |  | 0.0642 | 0.0968 | 0.0775 |  |  |  | 0.0632 | 0.0695 | 0.108 |  |  |  |  |
| MGESLFKGPRDYNPISSSICHLTNESDGHTTSLYGIGFGPFIITNKHLFRRNNGTLVVQSLHGVFKVKDTTTLQQHLVDGRDMIIIRMPKVFPPFPQKLKFREPQREERICLVTTNFQTKSMSSMVSDTSCTFPSGDGIFWKHWIQTKDGQCGSPLVSTRDGFIVGIHSASNFTNTNNYFTSVPKNFMELLTNQEAQQWVSGWRLNADSVLWGGHKVFMVKPEEPFQPVKEATQL [D91V] | 0.0888 | 0.0936 | 0.0655 |  | 0.0524 |  |  | 0.0679 | 0.0954 | 0.0519 | 0.0604 | 0.0476 |  | 0.0174 | 0.0417 | 0.0585 | 0.0718 | 0.0584 | 0.048 |  |
| MGESLFKGPRDYNPISSSICHLTNESDGHTTSLYGIGFGPFIITNKHLFRRNNGTLVVQSLHGVFKVKDTTTLQQHLVDGRDAIIIRMPKDFPPFPQKLKFREPQREERICLVTTNFQTKSMSSMVSDTSCTFPSGDGIFWKHWIQTKDGQCGSPLVSTRDGFIVGIHSASNFTNTNNYFTSVPKNFMELLTNQEAQQWVSGWRLNADSVLWGGHKVFMVKPEEPFQPVKEATQL [M83A] | 0.0875 | 0.0935 | 0.0808 | 0.0564 | 0.0511 | 0.092 |  | 0.0555 | 0.0799 | 0.0711 | 0.0438 |  | 0.0663 |  | 0.0614 | 0.0631 | 0.0556 | 0.0716 | 0.0595 | 0.0523 |
| MGESLFKGPRDYNPISSSICHLTNESDGHTTSLYGIGFGPFIITNKHLFRRNNGTLVVQSLHGVFKVKDTTTLQQHLVDGRDYIIIRMPKDFPPFPQKLKFREPQREERICLVTTNFQTKSMSSMVSDTSCTFPSGDGIFWKHWIQTKDGQCGSPLVSTRDGFIVGIHSASNFTNTNNYFTSVPKNFMELLTNQEAQQWVSGWRLNADSVLWGGHKVFMVKPEEPFQPVKEATQL [M83Y] | 0.0737 | 0.0904 |  | 0.0468 |  | 0.0621 | 0.0538 | 0.0167 | 0.069 | 0.0514 |  | 0.0564 |  |  |  |  |  | 0.0497 | 0.0498 | 0.0674 |
| MGESLFKGPRDYNPISSSICHLTNESDGHTTSLYGIGFGPFIITNKHLFRRNNGTLVVQSLHGVFKVKDTTTLQQHLVDGRDQIIIRMPKDFPPFPQKLKFREPQREERICLVTTNFQTKSMSSMVSDTSCTFPSGDGIFWKHWIQTKDGQCGSPLVSTRDGFIVGIHSASNFTNTNNYFTSVPKNFMELLTNQEAQQWVSGWRLNADSVLWGGHKVFMVKPEEPFQPVKEATQL [M83Q] | 0.0743 | 0.094 | 0.0726 |  | 0.0469 | 0.0663 | 0.0559 | 0.057 | 0.0696 |  |  | 0.071 |  |  | 0.0605 | 0.0323 | 0.009 | 0.0868 | 0.0576 |  |
| MGESLFKGPRDYNPISSSICHLTNESDGHTTSLYGIGFGPFIITNKHLFRRNNGTLVVQSLHGVFKVKDTTTLQQHLVDGRDSIIIRMPKDFPPFPQKLKFREPQREERICLVTTNFQTKSMSSMVSDTSCTFPSGDGIFWKHWIQTKDGQCGSPLVSTRDGFIVGIHSASNFTNTNNYFTSVPKNFMELLTNQEAQQWVSGWRLNADSVLWGGHKVFMVKPEEPFQPVKEATQL [M83S] | 0.0827 |  |  | 0.0689 | 0.0436 |  | 0.0359 | 0.0528 | 0.0688 | 0.0585 |  | 0.0545 | 0.0914 | 0.0576 | 0.05 | 0.067 |  |  | 0.0552 |  |
| MGESLFKGPRDYNPISSSICHLTNESDGHTTSLYGIGFGPFIITNKHLFRRNNGTLVVQSLHGVFKVKDTTTLQQHLVDGRDMIIIRSPKDFPPFPQKLKFREPQREERICLVTTNFQTKSMSSMVSDTSCTFPSGDGIFWKHWIQTKDGQCGSPLVSTRDGFIVGIHSASNFTNTNNYFTSVPKNFMELLTNQEAQQWVSGWRLNADSVLWGGHKVFMVKPEEPFQPVKEATQL [M88S] | 0.08 |  | 0.0868 |  | 0.0553 | 0.0752 | 0.0641 | 0.0499 | 0.0834 |  | 0.0557 | 0.0346 |  |  | 0.0565 |  |  |  | 0.0699 | 0.0531 |
| MGESLFKGPRDYNPISSSICHLTNESDGHTTSLYGIGFGPFIITNKHLFRRNNGTLVVQSLHGVFKVKDTTTLQQHLVDGRDMIIIRKPKDFPPFPQKLKFREPQREERICLVTTNFQTKSMSSMVSDTSCTFPSGDGIFWKHWIQTKDGQCGSPLVSTRDGFIVGIHSASNFTNTNNYFTSVPKNFMELLTNQEAQQWVSGWRLNADSVLWGGHKVFMVKPEEPFQPVKEATQL [M88K] | 0.0552 | 0.0727 | 0.0579 | 0.0489 |  | 0.0599 | 0.0633 |  | 0.0674 | 0.0619 |  |  |  |  |  |  |  |  |  | 0.0414 |
